Measured values published in PubChem BioAssay (NCATS).
Where “and” joins values, the source holds several entries; their conditions need not be identical. Equal values may be shown once. Inconclusive results, whose numbers are uncertain, are shown with a selection of clear calls. Potencies beside an inconclusive call are fits to weak or partial responses and may not hold up. Calls of active or inactive are those of the source. Calls come from the whole dose curve; as a rule, active = well fitted cell-killing curve with a large enough effect; inconclusive = small, poorly fitted or top-dose-only effect; inactive = no such curve, though single readings can be large or run the other way.

experiment: qHTS of pediatric cancer cell lines to identify multiple opportunities for drug repurposing: Primary screen for SJ-GBM2 cells (AID 1347091); settings: SJ-GBM2 viability, CellTiter-Glo luminescence, 48 h; series mostly up to 46 µM; activity change, negative = cytotoxic: at the top concentration;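 for activity change, negative = cytotoxic: plate controls were DMSO neutral control for no effect and bortezomib for full effect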
Summary of the method: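 Viability measured as metabolically active cells via CellTiter-Glo luminescence following 48 hours of compound exposure, 11-point dilutions in confirmatory testing. 500-1,000 cells/well plated 5 hours before dosing; controls were DMSO and 2.3 µM bortezomib.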
Potency is the fitted concentration of half-maximal effect; tags give direction and shape of the fitted curve.

| Compound | Potency | activity change, negative = cytotoxic |
| --- | --- | --- |
| Cc1cc(OCCCS(C)(=O)=O)cc(C)c1-c1cccc(COc2ccc3c(c2)OC[C@H]3CC(=O)O)c1 | active: 26.4 µM |  |
| CCOc1cc2ncc(C#N)c(Nc3ccc(F)c(Cl)c3)c2cc1NC(=O)C=CCN(C)C | active: 0.935 µM |  |
| CCN(CC)CCOc1ccc(Cc2ccccc2)cc1 | inconclusive: 16.8 µM [cytotoxic, partial curve, poor fit] and inconclusive: 16.6 µM [cytotoxic, partial curve] |  |
| CCCCN(CCCC)CC(O)c1cc(Cl)cc2c1-c1ccc(Cl)cc1C2=Cc1ccc(Cl)cc1 (centres undefined) | inconclusive: 33.2 µM [cytotoxic, single point] |  |
| CS(=O)(=O)Nc1ccc([N+](=O)[O-])cc1Oc1ccccc1 | inactive |  |
| C=CC(=O)Nc1cccc(Oc2nc(Nc3ccc(N4CCN(C)CC4)cc3OC)ncc2Cl)c1 | inconclusive: 29.6 µM [cytotoxic, single point] |  |
| CC(C)OC(=O)OCOP(=O)(CO[C@H](C)Cn1cnc2c(N)ncnc21)OCOC(=O)OC(C)C | inconclusive: 11.9 µM [cytotoxic, partial curve] |  |
| C[C@@H]1CC=CC=CC=CC=C[C@@H](O[C@@H]2O[C@H](C)[C@@H](O)[C@H](N)[C@H]2O)C[C@@H]2O[C@](O)(C[C@@H](O)C[C@@H]3O[C@@H]3C=CC(=O)O1)C[C@H](O)[C@@H]2C(=O)O |  | inactive: -21.2% |
| Nc1nc(=S)c2[nH]cnc2[nH]1 | inconclusive: 26.6 µM [cytotoxic, single point] |  |
| COc1cc2nccc(Oc3ccc(NC(=O)Nc4cc(C)on4)c(Cl)c3)c2cc1OC | active: 14.8 µM |  |
| Cc1c(-c2ccc(O)cc2)n(Cc2ccc(OCCN3CCCCCC3)cc2)c2ccc(O)cc12 | inconclusive: 21.1 µM [cytotoxic, single point] |  |
| CN(C)CCC=C1c2ccccc2C=Cc2ccccc21 | inconclusive: 29.9 µM [cytotoxic, single point] and inconclusive: 23.5 µM [cytotoxic, single point] |  |
| Nc1cccc(S(=O)(=O)N2CCCN(S(=O)(=O)c3ccc4c(c3)OCCO4)CC2)c1 | inconclusive: 18.7 µM [cytotoxic, partial curve, poor fit] |  |
| C[C@]12C=CC(=O)C=C1CC[C@@H]1[C@@H]2[C@@H](O)C[C@@]2(C)[C@@H]1CC[C@]2(O)C(=O)CO | inconclusive: 18.7 µM [cytotoxic, partial curve] |  |
| CC1=C(C(=O)Nc2cc3cn[nH]c3cc2F)C(c2ccc(C(F)(F)F)cc2)CC(=O)N1 (centres undefined) | inconclusive: 3.72 µM [cytotoxic, full curve] |  |
| Nc1ncnc2c1c(-c1cccc(OCc3ccccc3)c1)cn2C1CC(CN2CCC2)C1 (centres undefined) | inconclusive: 23.5 µM [cytotoxic, single point] |  |
| C[C@H](CCC(=O)O)[C@H]1CC[C@H]2[C@H]3[C@@H](CC[C@]12C)[C@@]1(C)CC[C@@H](O)C[C@H]1C[C@@H]3O | inconclusive: 20.9 µM [cytotoxic, single point] |  |

experiment: qHTS of pediatric cancer cell lines to identify multiple opportunities for drug repurposing: Primary screen for A673 cells (AID 1347092); settings: A673 Ewing sarcoma viability, CellTiter-Glo ATP luminescence, 48 h; activity change, negative = cytotoxic: at 46 µM (top of the series); note: nearly all actives have a fitted effect of over 45% in size; for activity change, negative = cytotoxic: % is set by controls: 0 for no effect and ±100 for the full control effect
Summary of the method: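 Luminescence from CellTiter-Glo, taken after 15 min at room temperature, served as the proxy for metabolically active cells following 48 h treatment. Both potency and efficacy were taken from curves fitted to the titration data.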

| Compound | Potency | activity change, negative = cytotoxic |
| --- | --- | --- |
| COc1ccc(CCN(C)CCCOc2ccc(S(=O)(=O)c3[nH]c4ccccc4c3C(C)C)cc2)cc1OC | inconclusive: 23.5 µM [cytotoxic, single point] |  |
| CC(C)(N)C(=O)N[C@H](COCc1ccccc1)C(=O)N1CCC2(CC1)CN(S(C)(=O)=O)c1ccccc12 | inconclusive: 29.6 µM [cytotoxic, single point] |  |
| Cn1cc(-c2ccc3nnc(Sc4ccc5ncccc5c4)n3n2)cn1 | inconclusive: 29.6 µM [cytotoxic, single point] |  |
| CCN(CC)CCNC(=O)c1ccc2nc(-c3ccccc3)c(-c3ccc(CN4CCC(n5c(=O)[nH]c6ccccc65)CC4)cc3)nc2c1 | active: 1.18 µM |  |
| S=P(N1CC1)(N1CC1)N1CC1 | inconclusive: 64.3 µM [cytotoxic, single point] |  |
| CCNC(=O)Nc1ccc(Oc2ncnc(N)c2C=NOC)cc1Cl | inconclusive: 7.43 µM [cytotoxic, partial curve, poor fit] |  |
| COc1ccccc1-c1cccc(-c2c(O)c3cc(C#N)c(Cl)cc3[nH]c2=O)c1 |  | inactive: 54.1% [at 92.7 µM] |
| COc1ccc(-c2ccc3cc(C(=O)O)ccc3c2)cc1C12CC3CC(CC(C3)C1)C2 | inconclusive: 18.7 µM [cytotoxic, single point] |  |
| O=C(Nc1cccc2c(=O)cc(-c3nn[nH]n3)oc12)c1ccc(OCCCCc2ccccc2)cc1 | inconclusive: 18.7 µM [cytotoxic, partial curve] |  |
| CNC(=O)c1c(-c2ccc(F)cc2)oc2cc(N(CCO)S(C)(=O)=O)c(C3CC3)cc12 | active: 23.5 µM |  |
| Cc1cc(OCCCS(C)(=O)=O)cc(C)c1-c1cccc(COc2ccc3c(c2)OC[C@H]3CC(=O)O)c1 | inconclusive: 18.7 µM [cytotoxic, partial curve, poor fit] |  |
| CCOc1cc2ncc(C#N)c(Nc3ccc(F)c(Cl)c3)c2cc1NC(=O)C=CCN(C)C | active: 0.0296 µM |  |
| CCN(CC)CCOc1ccc(Cc2ccccc2)cc1 | inconclusive: 26.6 µM [cytotoxic, single point] and inconclusive: 14.8 µM [cytotoxic, partial curve] |  |
| CCCCN(CCCC)CC(O)c1cc(Cl)cc2c1-c1ccc(Cl)cc1C2=Cc1ccc(Cl)cc1 (centres undefined) |  | inactive: -19.7% |
| CS(=O)(=O)Nc1ccc([N+](=O)[O-])cc1Oc1ccccc1 | inconclusive: 23.5 µM [cytotoxic, single point] |  |
| C=CC(=O)Nc1cccc(Oc2nc(Nc3ccc(N4CCN(C)CC4)cc3OC)ncc2Cl)c1 |  | inconclusive: -103% |
| CC(C)OC(=O)OCOP(=O)(CO[C@H](C)Cn1cnc2c(N)ncnc21)OCOC(=O)OC(C)C | inconclusive: 13.3 µM [cytotoxic, partial curve] |  |
| C[C@@H]1CC=CC=CC=CC=C[C@@H](O[C@@H]2O[C@H](C)[C@@H](O)[C@H](N)[C@H]2O)C[C@@H]2O[C@](O)(C[C@@H](O)C[C@@H]3O[C@@H]3C=CC(=O)O1)C[C@H](O)[C@@H]2C(=O)O | inconclusive: 29.6 µM [cytotoxic, single point] |  |
| Nc1nc(=S)c2[nH]cnc2[nH]1 | active: 841 nM and active: 743 nM |  |
| COc1cc2nccc(Oc3ccc(NC(=O)Nc4cc(C)on4)c(Cl)c3)c2cc1OC | inconclusive: 0.935 µM [cytotoxic, full curve, poor fit] |  |
| Cc1c(-c2ccc(O)cc2)n(Cc2ccc(OCCN3CCCCCC3)cc2)c2ccc(O)cc12 | inconclusive: 21.1 µM [cytotoxic, partial curve, poor fit] |  |
| CN(C)CCC=C1c2ccccc2C=Cc2ccccc21 | inconclusive: 26.6 µM [cytotoxic, single point] and inconclusive: 18.7 µM [cytotoxic, partial curve] |  |
| Nc1cccc(S(=O)(=O)N2CCCN(S(=O)(=O)c3ccc4c(c3)OCCO4)CC2)c1 |  | inactive: -8.15% |
| C[C@]12C=CC(=O)C=C1CC[C@@H]1[C@@H]2[C@@H](O)C[C@@]2(C)[C@@H]1CC[C@]2(O)C(=O)CO | inconclusive: 18.7 µM [cytotoxic, partial curve] |  |
| CC1=C(C(=O)Nc2cc3cn[nH]c3cc2F)C(c2ccc(C(F)(F)F)cc2)CC(=O)N1 (centres undefined) | inconclusive: 11.8 µM [cytotoxic, partial curve] |  |
| Nc1ncnc2c1c(-c1cccc(OCc3ccccc3)c1)cn2C1CC(CN2CCC2)C1 (centres undefined) | inconclusive: 4.69 µM [cytotoxic, partial curve] |  |
| C[C@H](CCC(=O)O)[C@H]1CC[C@H]2[C@H]3[C@@H](CC[C@]12C)[C@@]1(C)CC[C@@H](O)C[C@H]1C[C@@H]3O | inconclusive: 14.8 µM [cytotoxic, single point] |  |
